Results: publication PMC4336329 (PLoS ONE, 2015)
Out of some 310,000 compounds screened, about 2,200 (0.71%) showed an effect of 50% or more. The effect is printed as a negative number. Some of the results follow.

Biological target: human ether-à-go-go-related gene (hERG) potassium channel (human, UniProt Q12809)
Assay: primary screen, population patch clamp on CHO cells stably expressing hERG

human ether-à-go-go-related gene (hERG) potassium channel, sequence (Q12809 whole entry, looked up): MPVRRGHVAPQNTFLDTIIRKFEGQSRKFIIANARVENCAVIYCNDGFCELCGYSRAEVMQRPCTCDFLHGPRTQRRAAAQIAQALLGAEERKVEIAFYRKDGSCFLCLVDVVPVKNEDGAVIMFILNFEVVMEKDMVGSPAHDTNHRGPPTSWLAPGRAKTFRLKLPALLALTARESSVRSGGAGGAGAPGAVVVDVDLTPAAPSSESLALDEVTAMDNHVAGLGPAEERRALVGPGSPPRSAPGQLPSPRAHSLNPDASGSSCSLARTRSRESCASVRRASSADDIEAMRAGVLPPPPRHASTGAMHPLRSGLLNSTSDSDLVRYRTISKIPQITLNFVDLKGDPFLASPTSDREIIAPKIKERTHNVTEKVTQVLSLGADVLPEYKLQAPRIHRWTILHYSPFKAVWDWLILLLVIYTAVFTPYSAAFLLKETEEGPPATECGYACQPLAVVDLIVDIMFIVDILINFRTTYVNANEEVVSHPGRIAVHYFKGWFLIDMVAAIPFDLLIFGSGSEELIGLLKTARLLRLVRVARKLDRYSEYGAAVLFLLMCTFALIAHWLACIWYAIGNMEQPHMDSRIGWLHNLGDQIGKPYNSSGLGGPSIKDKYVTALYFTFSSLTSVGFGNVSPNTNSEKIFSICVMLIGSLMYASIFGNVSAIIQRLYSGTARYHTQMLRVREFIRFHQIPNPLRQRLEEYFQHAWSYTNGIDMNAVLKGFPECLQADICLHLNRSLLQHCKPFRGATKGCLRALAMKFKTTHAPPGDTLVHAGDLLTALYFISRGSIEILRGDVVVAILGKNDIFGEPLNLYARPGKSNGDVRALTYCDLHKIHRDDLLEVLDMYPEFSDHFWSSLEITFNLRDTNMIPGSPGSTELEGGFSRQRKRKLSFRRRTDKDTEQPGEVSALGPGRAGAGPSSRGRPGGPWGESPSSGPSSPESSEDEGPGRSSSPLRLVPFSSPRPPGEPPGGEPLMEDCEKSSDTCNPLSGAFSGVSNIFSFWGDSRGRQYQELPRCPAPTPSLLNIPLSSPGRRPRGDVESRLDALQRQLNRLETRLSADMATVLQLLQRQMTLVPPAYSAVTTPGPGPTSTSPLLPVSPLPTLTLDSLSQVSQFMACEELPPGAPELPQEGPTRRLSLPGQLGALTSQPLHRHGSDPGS

| SMILES | hERG current change (%, negative = inhibition) at 1uM [%] |
| --- | --- |
| COc1ccc(CCNC2CC(=O)N(C3CCCCC3)C2=O)cc1OC (centres unmarked) | -1.5 |
| COc1ccc(-c2onc(C)c2-c2cnn(-c3ccccc3)c2)c(O)c1 | 5.81 |
| O=S(=O)(Nc1cccc(-c2cn3c(n2)SCC3)c1)c1ccccc1F | 8.8 |
| Nn1c(SC/C=C/c2ccccc2)nnc1-c1ccccn1 | 5.78 |
| Cc1cccc(N2CCN(C(=S)NC3CCCCC3)CC2)c1C | 11.9 |
| CC(C)N(Cc1nc(-c2ccccc2)no1)C(=O)C(Cl)(Cl)Cl | 12.1 |
| CCN(CC)CCn1c(N)nc2ccccc21.Cl | 10.1 |
| O=C(Nc1nnc(-c2cccc(F)c2)s1)Nc1ccccc1F | 11.5 |
| CCN1C(=O)c2cccc3c(Cl)ccc(c23)C1=O | 14.1 |
| CC(C)Cc1n[nH]c(=O)[nH]1 | -4.9 |
| COc1cccc(OCCOCCOc2ccc(C)cc2[N+](=O)[O-])c1 | 5.23 |
| CCOCCCNC(=O)C1CC(=O)N(CCc2ccccc2)C1 (centres unmarked) | 13.2 |
| CCn1nc([N+](=O)[O-])c2c(-c3nc4ccccc4o3)c(N)n(CCCOC)c2c1=O | 9.96 |
| COc1ccc(C2/C(=C(\O)c3ccc4c(c3)OCCO4)C(=O)C(=O)N2Cc2cccnc2)cc1OC (centres unmarked) | 15.3 |
| O=C(c1c(F)cccc1F)N1CCN(c2cccc(C(F)(F)F)c2)CC1 | 15.4 |
| CCOc1ccc(OCc2ccc(C(=O)N3CCCC(C)C3)cc2)cc1 (centres unmarked) | -7.05 |
| COc1ccccc1Nc1nc(N)nc(CN2CCc3ccccc3C2)n1 | -2.7 |
| COCCOC(=O)C1=C(C)NC(=O)NC1c1cc2c(cc1Br)OCO2 (centres unmarked) | 15.1 |
| COC(=O)c1scc(C)c1N/N=C(\C)c1ccc(F)cc1 | -7.28 |
| COc1cc(CNC(C)c2ccccc2)cc(Br)c1OCc1ccc(F)cc1 (centres unmarked) | 15 |
| COc1cccc(NC(=S)NNC(=O)Cn2nc(C(F)(F)F)cc2C)c1 | 9.84 |
| COc1cc2ccccc2cc1C(=O)N1CCCC(C(F)(F)F)C1 (centres unmarked) | -0.177 |

| SMILES | hERG current change (%, negative = inhibition) at 1uM [%] |
| --- | --- |
| O=C(/C=C\c1ccc2c(c1)OCO2)NC1(C(=O)Nc2ccc3c(c2)OCCO3)CCCCC1 | 10.1 |
| COCCNC(=O)c1onc(CSc2cc(C)ccc2C)c1C(=O)O | 8.8 |
| CN1C(=O)C(CC(=O)NCCc2ccccc2)N(NC(=O)c2cccc(F)c2)C1=S (centres unmarked) | 7 |
| COc1cc(NS(=O)(=O)c2ccc3c(c2)NC(=O)CO3)cc(OC)c1 | 9.41 |
| COc1ccc(C(=O)NCCNc2ccc([N+](=O)[O-])cc2)cc1 | -5.45 |
| CC(C)CCNC(=O)CN(Cc1cccs1)C(=O)CCC(=O)Nc1nccs1 | 6.84 |
| COC(C(=O)Nc1ccc(NC(=O)C(OC)c2ccccc2)cc1)c1ccccc1 (centres unmarked) | 13.3 |
| Cc1ccc(C(=O)N2CCCC(Nc3ccc(C)c(C)c3)C2)c(=O)[nH]1 (centres unmarked) | -9.19 |
| CCOC(=O)c1cc2ccccc2nc1C | 9.54 |
| O=C(O)CCC(=O)Nc1cccc(C(=O)Nc2cccc(Cl)c2)c1 | 3.56 |
| NC(=O)c1nn(-c2ccccc2)nc1N | 8.29 |
| Cc1ccc(-c2noc(CCC(=O)Nc3ccccc3C)n2)cc1 | 15.2 |
| CC(C)OCCCN(C)C1CCN(S(=O)(=O)c2ccc(-c3cc(C(F)(F)F)no3)s2)CC1 | 7.62 |
| CCN1CCN(Cc2cc(Br)cc(Br)c2O)CC1 | -5.4 |
| CC1CCN(C(=S)c2ccc(-c3ccc(Cl)cc3Cl)o2)CC1 | 7.44 |
| CCOc1ccc(OCc2ccc(C(=O)N3CCCCC3)o2)cc1 | 12 |
| COc1ccc(NC(=S)N2c3ccccc3CC2C)cc1OC (centres unmarked) | 6.29 |
| COC(=O)c1ccc(Oc2nc3ccccc3n3c(C)nnc23)cc1 | 6.24 |
| Cc1ccc(NC(=O)CNC(=O)c2ccco2)cc1Cl | 20.4 |
| CCOC(=O)C(=CNc1cc(C)ccc1-n1cccc1)C(=O)OCC | 13.5 |
| Cn1cnnc1Sc1ccc(C(=O)NCCC23CC4CC(CC(C4)C2)C3)cc1[N+](=O)[O-] | 8.9 |
| Cc1ccc(C)c2[nH]c(=O)c(CCNC(=O)c3ccc(S(=O)(=O)N4CCCC4)cc3)cc12 | 0.21 |
